From PubChem BioAssay AID1645882 (National Center for Advancing Translational Sciences (NCATS), 2021)
Among all 16,000 compounds or so, about 120 (0.75%) were called active. Inconclusive results (about 4%) are left out. Calls come from the whole dose curve; as a rule, active = well fitted inhibition curve with a large enough effect; inconclusive = small, poorly fitted or top-dose-only effect; inactive = no such curve, though single readings can be large or run the other way. The list shows a part of the results.

These molecules were tested against Rap guanine nucleotide exchange factor 3 (Homo sapiens) (UniProt O95398) (assay: Validation qHTS for antagonist of cAMP-regulated guanine nucleotide exchange factor 3 (EPAC1)). Details: EPAC1 Rap1B-BODIPY-GDP exchange, fluorescence; activity change, negative = inhibition: at the top concentration.
Procedure, shortened: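 EPAC1 (100 nM) mixed with 250 nM RAP1B-BODIPY-GDP and 50 uM GDP; compounds in concentration series, 5 min at room temperature. Fluorescence (ex 480/em 540 nm) read every 5 min for 30 min; normalized to ATA control and DMSO.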
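Note: plate controls were DMSO for no effect and ATA control for full effect; nearly all actives have a fitted effect of over 75% in size.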

UniProt O95398, sequence (O95398 whole entry, looked up): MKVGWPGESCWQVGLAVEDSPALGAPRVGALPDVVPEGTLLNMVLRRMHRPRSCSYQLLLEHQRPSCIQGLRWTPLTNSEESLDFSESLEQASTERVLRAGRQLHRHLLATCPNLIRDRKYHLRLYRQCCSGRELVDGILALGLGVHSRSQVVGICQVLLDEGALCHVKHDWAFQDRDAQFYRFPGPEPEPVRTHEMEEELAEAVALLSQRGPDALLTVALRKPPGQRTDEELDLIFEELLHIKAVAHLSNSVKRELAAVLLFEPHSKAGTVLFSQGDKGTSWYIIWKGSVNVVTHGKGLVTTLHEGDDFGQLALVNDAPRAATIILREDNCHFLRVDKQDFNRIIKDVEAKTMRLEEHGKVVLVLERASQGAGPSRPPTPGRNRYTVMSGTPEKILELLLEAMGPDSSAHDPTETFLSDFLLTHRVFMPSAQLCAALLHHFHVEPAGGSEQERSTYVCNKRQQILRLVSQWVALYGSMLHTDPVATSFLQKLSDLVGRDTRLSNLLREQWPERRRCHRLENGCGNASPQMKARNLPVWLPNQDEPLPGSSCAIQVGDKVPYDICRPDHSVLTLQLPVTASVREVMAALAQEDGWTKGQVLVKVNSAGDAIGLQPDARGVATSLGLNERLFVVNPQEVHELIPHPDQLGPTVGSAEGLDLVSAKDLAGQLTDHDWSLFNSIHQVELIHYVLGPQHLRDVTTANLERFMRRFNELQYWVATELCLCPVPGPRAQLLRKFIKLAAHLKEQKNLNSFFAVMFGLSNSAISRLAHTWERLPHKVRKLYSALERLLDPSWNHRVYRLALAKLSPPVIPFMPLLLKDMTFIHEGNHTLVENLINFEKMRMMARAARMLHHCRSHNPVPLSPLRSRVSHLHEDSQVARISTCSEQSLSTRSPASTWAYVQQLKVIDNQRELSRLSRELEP

Row | SMILES | activity change, negative = inhibition
1 | CCC1(c2ccccc2)CCC(=O)NC1=O (configuration not stated) | inactive: 15.9%
2 | c1cc2ccc3cccc4ccc(c1)c2c34 | inactive: 31.6% [at 320 µM]
3 | C[C@@H]([C@H](O)c1ccccc1)N(C)C | inactive: 14.4%
4 | COc1ccc2c3c1O[C@H]1[C@@H](O)C=C[C@H]4[C@@H](C2)N(C)CC[C@@]341 | inactive: 19.6% [at 320 µM]
5 | N#Cc1ccc(CN2CC[C@@]3(CCCN(C(=O)Oc4ccccc4)C3)C2)cc1 | inactive: 0.985%
6 | CC(=O)OC1C(=O)[C@]2(C)C(O)CC3OC[C@]3(OC(C)=O)C2[C@@H](OC(=O)c2ccccc2)[C@]2(O)CC(O)C(C)=C1C2(C)C (some centres not stated) | inactive: 13.3%
7 | CC1C(=O)OC2O[C@]3(C)CC[C@H]4C(C)CCC1[C@]24OO3 (some centres not stated) | inactive: 8.62%
8 | O=C(OCCN1CCCCC1)C(O)(c1ccccc1)c1ccccc1 | inactive: 12.9%
9 | C[C@]12CCC3C(C=CC4=CC(=O)CC[C@]43C)C1CC[C@]2(O)CCC(=O)O (some centres not stated) | inactive: 6.34%
10 | COc1ccc2[nH]cc(CCN)c2c1 | inactive
11 | N#Cc1cccc(NC(=O)N2CCCC3(CCN(C(=O)Oc4ccccc4)CC3)C2)c1 | inactive: 3.85%
12 | [O]=[Cr](=[O])([OH])[O][Cr](=[O])(=[O])[OH] | inactive
13 | c1ccc(CN2CCC3(CCNCC3)CC2)cc1 | inactive: 18.7%
14 | CC(C)(C)NCC(O)c1cc(Cl)c(N)c(C(F)(F)F)c1 (configuration not stated) | inactive: 4.49%
15 | Cc1ncc(CNC(=O)N(CCCl)N=O)c(N)n1 | inactive
16 | COc1cc(C[C@@H](C)N)c(OC)cc1C | inactive: 35.5% [at 320 µM]
17 | CC(N)[C@H](O)c1ccc(O)c(O)c1 (some centres not stated) | inactive: 7.57% [at 75.8 µM]
18 | CC1(C)C(=O)C=C[C@@]2(C)C1=C(O)C(=O)[C@@]1(C)C2CC[C@@]2(C)C(c3ccoc3)C[C@H]3O[C@@]321 (some centres not stated) | inactive: 8.18%
19 | CCC1C(C)=NN=C(c2ccc(OC)c(OC)c2)c2cc(OC)c(OC)cc21 (configuration not stated) | inactive: 9.92%
20 | CC(C)=CC1C(C(=O)OCN2C(=O)C3=C(CCCC3)C2=O)C1(C)C (configuration not stated) | inactive: 0.319%
21 | CN1CCCCC1c1ccc(-c2cccnc2)nc1 (configuration not stated) | inactive
22 | C[C@]12CCC(=O)C[C@@H]1CC[C@@H]1[C@@H]2CC[C@]2(C)[C@@H](O)CC[C@@H]12 | inactive: 5.15%
23 | Clc1cccc(N2CCNCC2)c1 | inactive
24 | COc1ccc2[nH]cc(CCNCc3ccc(Br)cc3)c2c1 | inactive: 5.03%
25 | CCCN(CCC)C(=O)Cc1c(-c2ccc(Cl)cc2)nc2ccc(Cl)cn12 | inactive: 13.6%
26 | Clc1ccc(CSC(Cn2ccnc2)c2ccc(Cl)cc2Cl)cc1 (configuration not stated) | inactive: -6.63% [at 75.8 µM]

Row | SMILES | activity change, negative = inhibition
27 | CN1c2ccccc2C(NCCCCCCC(=O)O)c2ccc(Cl)cc2S1(=O)=O (configuration not stated) | inactive: 17.3%
28 | O=C(CN1CCCCC1c1cccnc1)c1ccccc1 (configuration not stated) | inactive: 7.76%
29 | CCCCCCC(=O)O[C@H]1CC[C@H]2[C@@H]3CC[C@H]4CC(=O)C=C(C)[C@]4(C)[C@H]3CC[C@]12C | inactive: 2.5%
30 | Oc1c(Br)cc(Br)cc1Br | inactive: 14.2%
31 | COc1cc(C[C@H](C)N)c(OC)cc1Br | inactive: 16.5% [at 320 µM]
32 | NCCc1cc(O)c(O)cc1O | inactive: -25.8%
33 | C#CCOS(=O)OC1CCCCC1Oc1ccc(C(C)(C)C)cc1 (configuration not stated) | inactive: 11.2%
34 | CC(C)C1C(=O)N2CCCC2[C@]2(O)O[C@@](NC(=O)[C@@H]3C=C4c5cccc6[nH]cc(c56)C[C@H]4N(C)C3)(C(C)C)C(=O)N12 (some centres not stated) | inactive: 2.76%
35 | CCC(=O)O[C@@](Cc1ccccc1)(c1ccccc1)[C@@H](C)CN(C)C | inactive: 7.21% [at 75.8 µM]
36 | CN1CC[C@@]23CCCCC2C1Cc1ccc(O)cc13 (some centres not stated) | inactive: 0.89%
37 | NNc1ccccc1 | inactive: 32%
38 | C[C@]12Cc3cn4c(nc3C=C1CCC1C2CC[C@@]2(C)[C@H]1CC[C@@]2(O)C#N)nc1ccccc14 (some centres not stated) | inactive: 14.2% [at 75.8 µM]
39 | CN(C)CCc1c[nH]c2ccc(O)cc12 | inactive: 34.5% [at 320 µM]
40 | COC([CH2][Hg])CNC(=O)c1ccccc1OCC(=O)O (configuration not stated) | inactive: 22.7%
41 | COC(=O)N1CCC2(CCCN(C)C2)CC1 | inactive: 4.25%
42 | C[C@@]12CCC(=O)C[C@@H]1CC[C@@H]1[C@@H]2CC[C@]2(C)C(=O)CC[C@@H]12 | inactive: 3.48%
43 | CN1CC[C@@]2(CCCN(C(=O)c3ccncc3)C2)C1 | inactive: 11%
44 | CC1(C)OC1COc1c2occc2cc2ccc(=O)oc12 (configuration not stated) | inactive: 13.7%
45 | CCCC[N+]1(C)[C@@H]2CC(OC(=O)[C@H](CO)c3ccccc3)C[C@H]1[C@@H]1O[C@@H]12 (some centres not stated) | inactive: 9.1%
46 | C=CCN(C1=NCCN1)c1c(Cl)cccc1Cl | inactive
47 | CC[C@@]1(O)C(=O)OCc2c1cc1n(c2=O)Cc2cc3ccccc3nc2-1 | inactive
48 | CN(C)[C@@H]1C(=O)C(C(N)=O)=C(O)[C@@]2(O)C(=O)C3=C(O)c4c(O)ccc(Cl)c4[C@@](C)(O)[C@H]3C[C@@H]12 | inactive: 22% [at 75.8 µM]
49 | O=C(c1ccco1)N1CCC[C@@]2(CCN(Cc3ccncc3)C2)C1 | inactive: 7.5%
50 | CN1CCN(C(=O)O[C@@H]2c3nccnc3C(=O)N2c2ccc(Cl)cn2)CC1 | inactive: 12%
51 | CC[N+](CC)(CCCNC1=CC(=O)C(NCCC[N+](CC)(CC)Cc2ccccc2)=CC1=O)Cc1ccccc1 | inactive
52 | O=C1C[C@@H]2OCC=C3CN4CC[C@]56c7ccccc7N1[C@H]5[C@H]2[C@H]3C[C@H]46 | inactive: 21.1%
